Experimental findings from PubChem BioAssay AID1645887 (National Center for Advancing Translational Sciences (NCATS), 2021) are described below.

“And” between values parts separate entries of the source, which are not always exact repeats. Equal entries are not always repeated. In all, about 16,000 compounds went through this assay and about 40 (0.2%) were called active. Another 1% or so got no clear call; they are omitted. Calls follow the shape of the dose curve; as a rule, active = well fitted activation curve with a large enough effect; inconclusive = small, poorly fitted or top-dose-only effect, or another doubt; inactive = no such curve, though single readings can be large or run the other way. Some of the results follow.
% is scaled to controls: 0 for no effect and ±100 for the full control effect.

The target of this assay is Rap guanine nucleotide exchange factor 4 (Homo sapiens) (UniProt Q8WZA2). The assay is described as follows: Validation qHTS for agonist of cAMP-regulated guanine nucleotide exchange factor 4 (EPAC2).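 Also: exchange makes BODIPY-GDP fluorescence drop when released from Rap1B; series mostly up to about 150 µM.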 As to conditions: EPAC2 Rap1B BODIPY-GDP exchange, fluorescence; activation: hits give high values. In outline: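 Fluorescent exchange assay: 100 nM EPAC2 with 250 nM RAP1B-BODIPY-GDP and 50 uM GDP; compound added, 5 min at room temperature, then read (ex 480/em 540 nm) every 5 min for 30 min. Normalized to 6.5 mM cAMP agonist control.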
Sequence of UniProt Q8WZA2 (Q8WZA2 whole entry, looked up): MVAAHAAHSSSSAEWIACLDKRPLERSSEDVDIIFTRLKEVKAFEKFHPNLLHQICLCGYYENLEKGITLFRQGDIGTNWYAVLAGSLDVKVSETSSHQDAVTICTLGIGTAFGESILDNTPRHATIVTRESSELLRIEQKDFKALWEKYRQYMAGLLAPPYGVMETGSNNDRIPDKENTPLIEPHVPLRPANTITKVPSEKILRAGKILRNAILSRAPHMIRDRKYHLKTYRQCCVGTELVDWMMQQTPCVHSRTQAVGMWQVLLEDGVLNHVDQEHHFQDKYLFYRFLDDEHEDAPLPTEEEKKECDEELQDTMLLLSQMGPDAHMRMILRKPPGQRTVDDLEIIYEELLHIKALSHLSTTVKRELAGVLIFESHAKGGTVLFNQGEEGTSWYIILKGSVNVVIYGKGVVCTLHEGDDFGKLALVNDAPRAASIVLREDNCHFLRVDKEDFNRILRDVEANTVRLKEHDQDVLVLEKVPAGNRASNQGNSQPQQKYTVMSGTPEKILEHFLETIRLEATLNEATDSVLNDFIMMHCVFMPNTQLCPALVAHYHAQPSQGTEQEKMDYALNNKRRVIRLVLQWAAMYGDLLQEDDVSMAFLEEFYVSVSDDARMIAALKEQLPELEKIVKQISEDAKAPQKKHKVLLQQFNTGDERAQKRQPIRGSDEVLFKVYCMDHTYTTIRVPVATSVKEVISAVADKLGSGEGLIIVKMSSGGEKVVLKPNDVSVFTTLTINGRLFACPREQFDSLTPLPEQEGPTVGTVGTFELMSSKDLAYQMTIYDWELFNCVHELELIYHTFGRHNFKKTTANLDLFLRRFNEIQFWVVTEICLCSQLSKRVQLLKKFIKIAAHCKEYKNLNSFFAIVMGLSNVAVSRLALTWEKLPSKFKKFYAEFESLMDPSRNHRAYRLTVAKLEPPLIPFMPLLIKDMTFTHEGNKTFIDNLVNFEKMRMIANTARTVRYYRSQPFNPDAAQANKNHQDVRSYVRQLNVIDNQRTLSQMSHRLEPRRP
On the technique in general: Quantitative high-throughput screening tests each substance at several concentrations.
On to `COc1ccccc1CN1CCC2(CC1)CCN(C(=O)c1c(C)noc1C)CC2`, for which the activation was inactive: 2.87%. For `O=P(O)(O)OC[C@H]1O[C@](O)(COP(=O)(O)O)[C@@H](O)[C@@H]1O` the value was inactive: -21.3%; for `NC[C@H](O)c1ccc(O)c(O)c1`, inactive: 10.6% and inactive: -16.8% and inactive: -7.04%; for `CN(C)C(=O)c1cc(CNCc2ccc(C(F)(F)F)cc2)cc(NC(=O)c2ccccn2)c1`, inactive: -9.28%. Next, `CNc1nc(-c2c(C)noc2C)nc2ccccc12`: inactive: -15.6%. Next, `CN(C)c1ncnc2ccc(-c3ccccc3C(F)(F)F)cc12`: inactive: -24.2%. Consider `COc1ccccc1C1CN(Cc2ccc(Sc3nncn3C)o2)Cc2ccccc2O1` (centres undefined), for which the activation is inactive: -10.1%.

Regarding `COc1cc2c(c(OC)c1OC)-c1ccc(OC)c(=O)cc1[C@H](NC(C)=O)CC2`, the activation was inactive: 3.29%.

On to `CC(=O)O[C@@]1(C(C)=O)CCC2C3C=C(Cl)C4=CC(=O)C5CC5[C@@]4(C)C3CC[C@]21C` (some centres undefined), for which the activation was inactive: -8.29%. Consider `COc1cccc(-c2nccc(N(C)Cc3ccco3)n2)c1`, for which the activation was inactive: -1.37%. Next, `CC(=O)Nc1c(I)c(C(=O)N[C@H]2C(O)O[C@H](CO)[C@@H](O)[C@@H]2O)c(I)c(N(C)C(C)=O)c1I` (some centres undefined): inactive: 4.11%; `COc1cccc(Cn2c(=O)c(-c3cccs3)nc3cnc(OCc4ccccc4)nc32)c1`: inactive: 2.14%.

For the molecule `COCCn1c(=O)c(-c2cccs2)nc2cncnc21`, the activation is inactive: 3.93%. As to `COc1ccccc1-c1nccc(NCc2cnc(C)cn2)n1`, the activation was inactive: -18.7%. For `N#CC[C@H](Cc1ccccc1)N1CCN(Cc2ccccc2)CCC1=O` the value was inactive: -22.6%; for `COc1ccc(-c2coc3c(OC)c(OC)cc(OC)c3c2=O)cc1`, inactive: -31.2%; for `CCCCCCOc1ccccc1C(N)=O`, inactive: -18.4%.

On to `COC(=O)C1CCCCN1Cc1ccc2c(c1)CN(C(=O)c1cc(C)nc3cc(F)ccc13)CCO2` (centres undefined), for which the activation is inactive: -8.36%.

On to `C[C@](Cc1ccc(O)c(O)c1)(NN)C(=O)O`, for which the activation was inactive: -12.8%. For `c1ccc2c(c1)CC(N1CCN(c3cccc4c3OCCO4)CC1)C2` the value was inactive: -32.6%; for `CS(=O)(=O)N1CCC2(CC1)CN(C(=O)Nc1cccc(C#N)c1)C2`, inactive: -10.8%; for `COc1ccc(CNc2nc(-c3cccc(C#N)c3)nc3ccccc23)c(OC)c1`, inactive: 17.8%.

In the case of `Cc1sc2ccccc2[n+]1Cc1ccccc1`, the activation was inactive: -28%. For `CCOC(=O)CNS(=O)(=O)Cc1ccccc1` the value was inactive: -1.01%. Next, `COc1ccc(Oc2ncc3nc(C)c(=O)n(CCC#N)c3n2)cc1`: inactive: -5.95%; `O=C(c1ccncc1)N1CCC2(CCCN(c3ccc(-c4ccccc4)cc3)C2)CC1`: inactive: -3.07%. Next, `CC1=C(C(=O)OCc2ccc3nsnc3c2)N2C(=O)[C@@H](NC(=O)OCc3ccc4nsnc4c3)[C@H]2SC1`: inactive: -25.1%; `COc1ccc(CN2CCOc3c(cc(-c4ccc(OC)nn4)cc3OC)C2)c(O)c1`: inactive: -11.8%. As for `CC(C)CN1CC2(CCN(C(=O)c3cnccn3)CC2)C1`, the activation is inactive: -2.22%. Next, `O=C(O)C1=C(CSc2nnnn2CS(=O)(=O)O)CS[C@@H]2[C@H](NC(=O)[C@H](O)c3ccccc3)C(=O)N12`: inactive: -4.27%; `N#CCCn1c(=O)cnc2cnc(OCc3ccccc3)nc21`: inactive: 1.52%; `Nc1ccn(C2OC(CO)C(O)C2O)c(=O)n1` (centres undefined): inactive: 5.3% and inactive: -9.82%. Regarding `Cc1ccccc1-c1cncnc1NCc1cccnc1`, the activation is inactive: -5.18%.

With `COc1ccc(OC)c2c(/C=C/c3c[nH]c4ccccc34)ccnc12`, the activation was inactive: -30.1%.

As to `Cc1ccc(C(=O)NCCc2nnc3n2CCN(Cc2ccc4ccccc4c2)CC3)c(C)c1`, the activation was inactive: 1.28%. Next, `COc1cc(N)c(NC(=O)/C=C/c2nc3cc(OC)c(OC)cc3[nH]2)cc1OC`: inactive: -22.6%; `C=C[C@]1(C)C[C@@H](OC(=O)CSC(C)(C)CNC(=O)[C@H](N)C(C)C)[C@]2(C)[C@H](C)CC[C@]3(CCC(=O)[C@H]32)[C@@H](C)[C@@H]1O`: inactive: 6.92%.

`CN(N=O)C(=O)N[C@H]1C(O)C(O)C(CO)O[C@@H]1O` (some centres undefined): the activation is inactive: -9.5%. `COC(=O)N1CCC2(CCN(Cc3cc(C(F)(F)F)cc(C(F)(F)F)c3)CC2)CC1`: the activation was inactive: -29.3%. Next, `Cc1nn(-c2ccc(F)cc2)c(C)c1CNC(=O)c1ccc(-n2cc(NC(=O)c3ccoc3)cn2)cc1`: inactive: 12.1%; `COc1cccc(CN2CCC(c3nnc(SCC4CCCO4)n3C)CC2)c1O` (centres undefined): inactive: -17.3%; `CCc1cc(C(=O)NCC2Cc3cccc(-c4ccc(C(=O)OC)cn4)c3O2)no1` (centres undefined): inactive: -14.7%. Next, `CCC1CN(CCNC(=O)c2cc3ccccc3oc2=O)Cc2cc(OC)ccc2O1` (centres undefined): inactive: 1.42%; `CC1CCC2[C@](C)(CO)C(O)CC[C@]2(C)C12CCC(CO)(CCO)O2` (some centres undefined): inactive: -9.66%; `O=c1c(-c2cccs2)nc2cnc(N3CCNCC3)nc2n1C1CC1`: inactive: 5.82%. Next, `CNCC(O)c1ccc(O)c(O)c1` (centres undefined): inactive: -8.02% and inactive: -9.91%; `COc1cc2c(C(=O)c3ccccc3)c3c4c(cc(OC)c(OC)c4c2cc1OC)CCN3C`: inactive: -19.6%. With `CC(CNC1CCCCC1)OC(=O)c1ccccc1` (centres undefined), the activation was inactive: -18.8%. For `CC(C)C[C@@H](CO)N1CCN(C)CCC1=O` the value was inactive: -16.4%; for `O=C(O)c1cccc(-c2noc(-c3ccccc3F)n2)c1`, inactive: 10.2%. For `Nc1ccc(S(=O)(=O)Nc2nccs2)cc1` the value was inactive: -0.78% and inactive: -23.6%. Next, `O=C1c2c(O)cccc2[C@H]([C@@H]2O[C@H](CO)[C@@H](O)[C@H](O)[C@H]2O)c2cc(CO)cc(O)c21`: inactive: -11.1%. For `COc1cc2ccc(=O)oc2c(O)c1O`, the activation was inactive: -8% and inactive: -4.49%.

For the molecule `O=C(c1ccco1)N1CCC2(CC1)CN(Cc1cc(C(F)(F)F)cc(C(F)(F)F)c1)C2`, the activation was inactive: -10.8%. Next, `COCCn1c(=O)c(-c2ccccc2)nc2cnc(OCc3ccccc3)nc21`: inactive: -5.55%. For `Cc1ccc(-c2cc(C(F)(F)F)nn2-c2ccc(S(N)(=O)=O)cc2)cc1` the value was inactive: -24.8% and inactive: 11.9%. Next, `O=C1c2ccccc2C(=O)c2c(O)c(O)cc(O)c21`: inactive: 19.2% and inactive: 2.97%.

Consider `COC1C=CC23c4cc5c(cc4CN(CC2O)C3C1)OCO5` (centres undefined), for which the activation was inactive: -11%. For `CCCOC(=O)c1ccc(O)cc1` the value was inactive: -15.6% and inactive: -8.79%; for `COCCn1c(=O)c(-c2cn(C)c3ccccc23)nc2cnc(Oc3cccc(Cl)c3)nc21`, inactive: -21.8%.

In the case of `COc1ccc(SC[C@H](Cc2ccccc2)N2CC[C@@H](C(C)(C)C)CCC2=O)cc1`, the activation was inactive: -10.5%.

Regarding `OC(C#CCN1CCCC1)(c1ccccc1)c1ccccc1`, the activation was inactive: -7.04%. For `O=C(NCCCN1CCCCCC1)[C@@H](c1ccccc1)C1CCCCC1` the value was inactive: -14%. For `Cc1ccccc1-c1nc(N(C)C)c2ccccc2n1` the value was inactive: -10.8%. For `C=CCn1c(=O)c2c(nc(-c3ccccc3)n2C)n(C)c1=O` the value was inactive: -2.28%; for `CCNc1ncc2nc(-c3ccc(F)cc3)c(=O)n(C)c2n1`, inactive: -14%; for `Cc1cnc(CNc2ncnc3ccc(-c4ccc(N(C)C)cc4)cc23)cn1`, inactive: -0.839%.

Turning to `CS(=O)(=O)Nc1cccc(-c2cncnc2NCc2cccnc2)c1`, the activation is inactive: -23.3%. Consider `Clc1ccccc1-c1nccc(NCCN2CCOCC2)n1`, for which the activation was inactive: -17%.

Turning to `CCN(CC)CCC(=O)N1c2ccccc2Sc2ccc(Cl)cc21`, the activation was inactive: -6.87%. Next, `COc1ccc(-c2c(-c3ccc4c(c3)OCO4)noc2-c2ccsc2)cn1`: inactive: -20.5%; `CCC(C)(C)N=C(NC#N)Nc1cccnc1`: inactive: -9.64%; `CCOC(=O)C1=C(C)NC(=S)NC1c1cccc(O)c1` (centres undefined): inactive: -28.6%. For `COC(=O)[C@@H]1C[C@H](NC(=O)c2ccccn2)CN1Cc1cccc2ccccc12` the value was inactive: -15.5%; for `N#Cc1c(N(CC(=O)O)CC(=O)O)sc(C(=O)O)c1CC(=O)O`, inactive: -14.7%. `CC[C@H]1OC(=O)[C@H](C)[C@@H](O[C@H]2C[C@@](C)(OC)[C@@H](O)[C@H](C)O2)[C@H](C)[C@@H](O[C@@H]2O[C@H](C)C[C@H](N(C)C)[C@H]2O)[C@](C)(O)C[C@@H](C)CN(C)[C@H](C)[C@@H](O)[C@]1(C)O`: the activation is inactive: -0.675%.

For `COCCn1c(=O)c(-c2cn(C)c3ccccc23)nc2cnc(Oc3ccc(OC)cc3)nc21`, the activation was inactive: -0.57%. Next, `Cc1csc(SCC(=O)NCC2Cc3cc(-c4cncnc4)ccc3O2)n1` (centres undefined): inactive: 4.64%. Next, `CN(C)C(=O)CCSC(SCCC(=O)O)c1cccc(/C=C/c2ccc3ccc(Cl)cc3n2)c1` (centres undefined): inactive: -8.73%; `CC1CC(=O)NN=C1c1ccc(NCC(C)(C)NCC(O)COc2cc(Cl)ccc2C#N)cc1` (centres undefined): inactive: -1.39%. Next, `CC1(C)S[C@@H]2[C@H](NC(=O)C(C(=O)O)c3ccsc3)C(=O)N2[C@H]1C(=O)O` (some centres undefined): inactive: -3.91%. With `COCCNC(=O)COc1ccc(OCCNC[C@H](O)COc2ccccc2)cc1`, the activation is inactive: 1.58%. For `CCOC(=O)/C=C/c1ccc2c(c1)S(=O)(=O)N(c1cccc(OC)c1)[C@H]2CC(=O)OCC` the value was inactive: -11.1%; for `COc1ccc(O)c(CN2CCC3(CCC(CNC(=O)C4CCCO4)O3)CC2)c1` (centres undefined), inactive: -10.5%.
